In article PMC4336329 (PLoS ONE, 2015):
In all, about 310,000 compounds went through this assay and about 2,200 (0.71%) showed an effect of 50% or more. The effect is printed as a negative number. Some of the results follow.

Target: human ether-à-go-go-related gene (hERG) potassium channel (human, UniProt Q12809)
Experiment: primary screen, population patch clamp on CHO cells stably expressing hERG

Chain of human ether-à-go-go-related gene (hERG) potassium channel (Q12809 whole entry, looked up): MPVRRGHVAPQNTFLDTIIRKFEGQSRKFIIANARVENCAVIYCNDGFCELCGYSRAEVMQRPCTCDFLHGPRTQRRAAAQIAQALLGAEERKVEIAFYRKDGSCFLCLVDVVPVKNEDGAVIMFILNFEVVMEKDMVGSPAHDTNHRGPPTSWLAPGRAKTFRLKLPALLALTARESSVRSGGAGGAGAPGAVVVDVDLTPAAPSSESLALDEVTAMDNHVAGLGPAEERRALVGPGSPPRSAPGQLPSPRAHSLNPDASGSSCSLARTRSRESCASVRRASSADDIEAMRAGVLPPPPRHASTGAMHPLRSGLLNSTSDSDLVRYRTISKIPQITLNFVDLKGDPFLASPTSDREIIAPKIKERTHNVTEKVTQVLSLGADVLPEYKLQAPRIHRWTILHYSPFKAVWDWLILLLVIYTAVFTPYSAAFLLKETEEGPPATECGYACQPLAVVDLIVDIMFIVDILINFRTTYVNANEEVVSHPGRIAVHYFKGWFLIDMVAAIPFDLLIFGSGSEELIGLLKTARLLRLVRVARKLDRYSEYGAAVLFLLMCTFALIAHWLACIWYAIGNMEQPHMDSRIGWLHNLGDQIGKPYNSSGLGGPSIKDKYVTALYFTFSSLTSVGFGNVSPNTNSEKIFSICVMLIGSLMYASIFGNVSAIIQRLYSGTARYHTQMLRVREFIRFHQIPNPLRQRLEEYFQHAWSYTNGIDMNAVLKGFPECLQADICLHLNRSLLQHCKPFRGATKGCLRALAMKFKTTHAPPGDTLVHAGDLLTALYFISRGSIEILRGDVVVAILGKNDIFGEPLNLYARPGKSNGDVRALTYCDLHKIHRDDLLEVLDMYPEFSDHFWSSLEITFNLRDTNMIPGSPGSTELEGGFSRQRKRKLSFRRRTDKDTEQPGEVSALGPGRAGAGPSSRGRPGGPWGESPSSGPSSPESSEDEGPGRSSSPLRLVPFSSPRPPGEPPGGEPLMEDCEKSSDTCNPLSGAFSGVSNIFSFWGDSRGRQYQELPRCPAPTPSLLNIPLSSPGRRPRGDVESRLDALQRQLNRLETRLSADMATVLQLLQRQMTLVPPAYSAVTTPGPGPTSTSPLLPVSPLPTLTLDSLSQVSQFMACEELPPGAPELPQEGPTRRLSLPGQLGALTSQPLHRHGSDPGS

Row | SMILES | hERG current change (%, negative = inhibition) at 1uM
1 | Cc1[nH]n(-c2ccccc2)c(=O)c1C=Nc1ccc(S(N)(=O)=O)cc1 | -3.59%
2 | CCOC(=O)c1cc(C)n(CCc2cnc[nH]2)c1C | 4.49%
3 | COc1ccc(NC(=S)NC(NC(=O)c2cccc(Cl)c2)C(Cl)(Cl)Cl)c([N+](=O)[O-])c1 (stereo not shown) | 9.21%
4 | COc1ccc(CNC(=O)CN2CCN(c3ccccc3O)CC2)cc1OC | 14.1%
5 | COc1ccc(C(=O)c2sc(Nc3ccccc3)nc2C)cc1 | 3.32%
6 | CC(=O)c1ccc(NC(=O)CSc2nnc(Cn3c(=O)sc4ccccc43)n2C)cc1 | 6.7%
7 | COc1ccc(/C=C2\SC(=S)N(CCC(=O)NCCc3ccc(O)cc3)C2=O)cc1 | 14%
8 | CCc1ccc(/C=C2\SC(=S)N(CCCC(=O)Nc3ccc(C(=O)O)cc3)C2=O)cc1 | 18.3%
9 | COC(=O)CCCNC(=O)c1ccc2[nH]c(C)c(C)c2c1 | 9.74%
10 | COc1ccc(CCNC(=O)c2c(C)noc2C)cc1 | 9.91%
11 | Br.COc1ccc(C2=Nn3c(C)nnc3SC2)cc1 | 15.5%
12 | Cn1c[n+](C)cc1C(O)c1ccccc1.[I-] (stereo not shown) | 13.8%
13 | Cc1cc(C)c(NC(=O)c2sc3nc4c(cc3c2N)C(=O)CC(C)(C)C4)c(C)c1 | 13.4%
14 | C#CCOCCOCCOCCNc1nc(N2CCN(C(=O)[C@H](C(C)C)n3cc(CCO)nn3)CC2)nc(N2CCN(C(=O)[C@H](CCCC[NH3+])n3cc(CCCC)nn3)CC2)n1.[Cl-] | 8.8%
15 | COC(=O)c1cccc(-n2c(=O)n(Cc3ccccc3)c(=O)c3[nH]cnc32)c1C | 17%
16 | Cc1ccc(S(=O)(=O)N2CCN(C(=O)c3cc(=O)c4ccccc4o3)CC2)cc1 | -2.49%
17 | Cc1cccc(/C(N)=N/OC(=O)c2ccc3c(c2)OCO3)c1 | 4.44%
18 | Cc1cc(C)nc(NC(=S)Nc2ccc(Br)cc2Cl)c1 | -20.3%
19 | Oc1cc2c(cc1CN1CCN(c3ccccc3)CC1)OCO2 | 16.4%
20 | Cc1csc(NC(=O)C2CCCN(S(=O)(=O)c3ccc(Br)s3)C2)n1 (stereo not shown) | 12.5%
21 | CC(C)c1ccccc1NC(=O)CN1C(=O)c2ccccc2C1=O | 4.33%
22 | CC(C)(C)NC(=O)c1cccc2c1C(=O)c1ccccc1-2 | 12.7%

Row | SMILES | hERG current change (%, negative = inhibition) at 1uM
23 | CC1CCN(S(=O)(=O)c2cn(CC(=O)Nc3cccc(C#N)c3)cn2)CC1 | 12.7%
24 | COc1ccc(CC(=O)OCC(=O)N(C)C2CCS(=O)(=O)C2)cc1OC (stereo not shown) | 12.3%
25 | CC(=O)N[C@@H](Cc1c[nH]c2ccccc12)C(=O)OCC(=O)Nc1ccc(S(=O)(=O)N(C)C)cc1 | 8.27%
26 | COc1cccc2cc(-c3nnc(SCC(=O)Nc4ccc(NC(C)=O)cc4)n3C)oc12 | 15.4%
27 | NC(=O)CCN(C1CCCCC1)S(=O)(=O)c1cccc2nsnc12 | 11.3%
28 | CC1Cc2ccccc2N1S(=O)(=O)c1cccc(C(=O)NNC(=O)c2ccccc2F)c1 (stereo not shown) | 8.14%
29 | COc1ccc(S(=O)(=O)N2CCN(C)CC2)cc1NC(=O)c1ccccc1 | -5.77%
30 | COc1cc(-c2nnc3sc(Cc4ccc(Cl)cc4)nn23)cc(OC)c1OC | 10.8%
31 | COc1ccc(NC(=O)C2CCC(CNc3c(N4CCCCC4)c(=O)c3=O)CC2)c(OC)c1 (stereo not shown) | 8.82%
32 | COc1ccc(NS(=O)(=O)c2ccc(Oc3cccc(C(=O)O)c3)cc2)cc1 | 15.4%
33 | CC(=O)c1c(C)n([O-])c2ccc(C)cc2[n+]1=O | 5.93%
34 | Cc1cccc(NC(=O)c2cc(N3C(=O)CCC3=O)ccc2Cl)n1 | 6.01%
35 | Cc1ccc(/C=C2/Sc3ccc(C(=O)N4CCC5(CC4)OCCO5)cc3NC2=O)cc1 | 11.9%
36 | CCOC(=O)c1c(NC(=O)CSc2nc3ccccc3o2)sc(C(C)=O)c1C | 17.1%
37 | COc1ccc(NC(=O)C2CCOC(C)(C)C2)cc1 (stereo not shown) | 18.2%
38 | Cc1ccc(S(=O)(=O)N(CC(=O)Nc2cccc([N+](=O)[O-])c2)Cc2ccc(Cl)cc2)cc1 | 10.8%
39 | COc1cccc(CNC(=O)Cn2nc([N+](=O)[O-])c(Br)c2C)c1 | 13.9%
40 | CCn1c(C)cc(/C=C2\NC(=O)N(Cc3ccccc3)C2=O)c1C | 10.5%
41 | COC(=O)c1sccc1NC(=S)Nc1ccc(OC)cc1 | 8.21%
42 | COc1ccc(-c2nc3scc(-c4ccc(OC)c(OC)c4)c3c(=O)o2)cc1 | 9.24%
43 | Brc1cnc(N2CCCC2)nc1N1CCCCC1 | 10.1%
44 | CN1C(=O)N(C)C(=O)C2(Sc3ccccc3C2=O)C1=O | 3.6%

Row | SMILES | hERG current change (%, negative = inhibition) at 1uM
45 | Cc1ccc(CCNC(=O)CN(c2ccc(C)cc2)S(=O)(=O)c2c(C)noc2C)cc1 | 8.31%
46 | O=C1CC(c2ccc(F)cc2)C(n2cncn2)C(O)=C1C1NCCc2ccccc21 (stereo not shown) | 9.88%
47 | Cc1ccccc1NC(=O)CSCc1nc(N)nc(Nc2ccccc2C)n1 | 9.06%
48 | CCS(=O)(=O)N1CCC(C(=O)NCCN2CCOCC2)CC1 | 1.79%
49 | C=CCN(C(=O)c1csnn1)C(C(=O)NCc1ccc(F)cc1)c1sccc1C (stereo not shown) | 5.04%
50 | COC(=O)C1=C(C)N(c2cccc(Cl)c2)C(=O)C1 | 6.88%
51 | CC(=O)NC(CC(=O)OCC(=O)N1CCN(S(=O)(=O)c2ccc(C)cc2C)CC1)c1ccccc1 (stereo not shown) | 0.916%
52 | Cc1c(Cc2ccccc2)c(=O)oc2cc(OCC(=O)NCC(O)c3ccccc3)ccc12 (stereo not shown) | 11.8%
53 | CCOC(=O)N1CCN(c2ccc(F)cc2[N+](=O)[O-])CC1 | 1.26%
54 | COC(C[C@@H]1O[C@@H]1[C@H](O)[C@@H](C)OCc1ccccc1)OC | -4.75%
55 | CCOC(=O)c1ccc[n+](C(C)C(=O)c2ccc(-c3ccccc3)cc2)c1.[Br-] (stereo not shown) | -0.939%
56 | CC(=O)Oc1ccc2c(c1)c(C(C)=O)c(C)n2C | 9.13%
57 | Cl.c1ccc(N2CCCCC2)c(NC2=NCCC2)c1 | 6.94%
58 | COCCn1c(=O)[nH]c2cc(C(=O)NCCc3ccc(S(N)(=O)=O)cc3)ccc2c1=O | 19.5%
59 | COc1ccccc1Nc1nc(N)nc(CN2CCCCCC2)n1 | -32.2%
60 | Cc1ccc2nc(C(F)(F)F)c(C#N)c(N)c2c1 | 4.3%
61 | CCn1c(SCc2nc(-c3ccc(Cl)cc3)no2)nnc1-c1ccco1 | 0.342%
62 | O=c1c2ccccc2cnn1Cc1nnc(-c2cccs2)o1 | 13.7%
63 | CCCCNCCOCCSc1ccc(Cl)cc1.O=C(O)C(=O)O | 0.752%
64 | Brc1ccccc1-c1nnc(COc2cccc3cccnc23)o1 | 9.91%
65 | COc1ccc(CNC(=O)c2cc3ccccc3oc2=O)cc1 | 7.93%
66 | O=C(NCc1cccnc1)c1cc(Sc2ccc(F)cc2F)nc2ccccc12 | -1.9%

Row | SMILES | hERG current change (%, negative = inhibition) at 1uM
67 | COc1cc(/C=N/Nc2ccc(S(N)(=O)=O)cc2)cc(OC)c1OC | 10.9%
68 | Cc1ccc(-c2cc(C(=O)Nc3ccc(S(=O)(=O)N4CC(C)OC(C)C4)cc3)[nH]n2)c(O)c1 (stereo not shown) | 13.3%
69 | CCOC(=O)C(O)(c1ccc(N)c(OC)c1)C(F)(F)F (stereo not shown) | 8.72%
70 | CN(C(=O)CN1CCC(NC(=O)c2ccccc2Br)CC1)C1CCCCC1 | 11.2%
71 | CC(C)NCC(O)COc1ccc(Br)cc1.Cl (stereo not shown) | -2.04%
72 | CCN(CC)C(=O)c1[nH]cnc1C(=O)N[C@@H](CC(C)C)C(=O)OC(C)(C)C | 16.6%
73 | CN1CC(=O)N2[C@H](c3ccc4c(c3)OCO4)c3[nH]c4ccccc4c3C[C@@H]2C1=O | 6.62%
74 | O=C(Nc1nnc(C2=COCCO2)o1)c1ccc([N+](=O)[O-])s1 | 1.37%
75 | Cc1ccccc1NC(=O)COC(=O)C1C2CC3OC(=O)C1C3C2 (stereo not shown) | 10%
76 | O=C(CCc1ccc(S(=O)(=O)NC2CCCCC2)cc1)NCc1ccccn1 | 20.4%
77 | CC(=O)Nc1ccc(C(=O)CSc2nnc(C)o2)cc1 | 2.67%
78 | CCC(O)CNC(=O)NC(=C(Cl)Cl)c1ccc(C)c(F)c1 (stereo not shown) | -2.35%
79 | CCCCn1c(=O)n(CC(=O)Nc2ccc(OC)c(Cl)c2)c(=O)c2c1nc(CO)n2CCC | 12%
80 | CC(C)NC(=O)c1ccc(-c2cc(C(F)(F)F)ccc2Cl)o1 | 6.75%
81 | Cc1c(Cl)cccc1NC(=O)CSCC(N)=O | -5.11%
82 | Cc1ccc([C@@H]2[C@@H]3C(=O)N(c4ccccc4)C(=O)[C@@H]3[C@]3(C)C(=O)N(Cc4ccc(-c5ccccc5)cc4)CC(=O)N23)o1 | 9.8%
83 | O=C(c1ccccc1)c1ccc(Cn2cc(-c3ccccc3)nn2)cc1 | -11.1%
84 | Cc1onc(-c2c(F)cccc2Cl)c1C(=O)N1CCc2ccccc2C1 | 0.111%
85 | O=C(c1ccco1)N(Cc1cccc([N+](=O)[O-])c1)c1ccc(Br)cc1 | -11.4%
